Experimental findings from ChEMBL document CHEMBL5308541, “MAIP: An Open-Source Tool to Enrich High-Throughput Screening Output and Identify Novel, Druglike Molecules with Antimalarial Activity” (ACS Med Chem Lett, 2023) are described below.

The whole screen tested about 150,000 compounds, of which about 540 (0.36%) showed an effect of 50% or more. This is one part of the list.

The assay deals with Plasmodium falciparum. Briefly: Primary screen in NF54 nanoGlo assay, in single point, at 2uM, 72h; a lower Z score goes with more inhibition. Format: functional, Erythrocyte. The conditions noted are these: timepoint 72 hour.
Regarding `Cc1ccc(Nc2ccccc2C(=O)N2CCN([C@H]3CCNC3)CC2)cc1`, the “% Inhibition” value is given as -4% and the Z score was 0.76.

Turning to `O=S(=O)(Oc1ccc(-c2nc3cc(Cl)ccc3[nH]2)cc1)c1ccc(Cl)cc1`, the “% Inhibition” value is -4% and the Z score came out at 0.65.

Take `OC[C@H]1CCCN(c2cc(NCCc3csc4ccccc34)ncn2)C1`: the “% Inhibition” value came out at 3% and the Z score is listed as -0.55.

As for `OCCNc1nc2ccccc2n1Cc1csc(C2CCCC2)n1`, the “% Inhibition” value is reported as -12% and the Z score turned out to be 2.13.

Consider `Nc1nc2c(c(NCC3=CCCCC3)n1)CCN([C@H]1CCCNC1)CC2`, for which the “% Inhibition” value is listed as 13% and the Z score was -2.3.

With `CN(CCCc1nccn1C)C[C@]1(O)CCCNC1`, the “% Inhibition” value is listed as -3% and the Z score is reported as 0.53.

For the compound `O=C(CCc1n[nH]c2c1CCCC2)NC1CCN(S(=O)(=O)c2ccccc2)CC1`, the “% Inhibition” value was -6% and the Z score stood at 1.18.

On to `O=C(Nc1ccccc1Oc1cccnc1)[C@@H]1CCCN1C(=O)CC1CC1`, for which the “% Inhibition” value stood at 4% and the Z score is -0.75.

For `CCN1CCO[C@@H](CNc2ncnc3[nH]ccc23)[C@@H]1c1nccn1C`, the “% Inhibition” value is reported as 3% and the Z score is reported as -0.57.

With `COCCCn1cnc(-c2ccccc2)c1-c1cc2c(cc1OC)OCCCO2`, the “% Inhibition” value was 13% and the Z score is listed as -2.73.

Consider `COc1ccccc1-c1cc(C(=O)NC2CCN(c3cc(-c4cccs4)[nH]n3)CC2)[nH]n1`, for which the “% Inhibition” value stood at 3% and the Z score is listed as -0.48.

In the case of `O=C(NCc1n[nH]c2ncccc12)c1ccc2cccc(F)c2n1`, the “% Inhibition” value was -9% and the Z score is given as 1.64.

Regarding `Cn1cc(CCN2CCC(C(=O)NCc3ccc(F)cc3Cl)CC2)c2cccnc21`, the “% Inhibition” value came to 6% and the Z score is on record as -1.05.

`O=S1(=O)CC[C@H](NC2CCN(c3ncnc4[nH]ccc34)CC2)C1`: the “% Inhibition” value was -3% and the Z score is given as 0.45.

In the case of `Cc1ccc(-c2cc(C(=O)NC[C@H]3CC4(CCNCC4)CO3)[nH]n2)cc1`, the “% Inhibition” value is given as 1% and the Z score was -0.25.

With `CC(C)CCNC[C@H]1O[C@H](Cc2cc(CN3CCN(c4ccccc4)CC3)on2)CC[C@@H]1O`, the “% Inhibition” value is on record as -1% and the Z score is reported as 0.11.

With `COc1ccc(Nc2ncnc3onc(C)c23)cc1OC(C)C`, the “% Inhibition” value amounted to 10% and the Z score is given as -1.71.

Consider `O=c1cc(C2CCN(c3nccc(N4CCC(O)CC4)n3)CC2)cc[nH]1`, for which the “% Inhibition” value is 0% and the Z score amounted to 0.03.

For `CCOc1ccccc1Nc1cc(C)ncn1`, the “% Inhibition” value is reported as -8% and the Z score worked out at 1.21.

On to `C[C@@H](Cc1cnccn1)Nc1cc(-c2ccncc2)nc2ccnn12`, for which the “% Inhibition” value is -12% and the Z score is 2.06.

For `Cc1ccc(CN2CCC(CNc3cc(-n4nc(C)cc4N)ncn3)CC2)cc1`, the “% Inhibition” value turned out to be 4% and the Z score was -0.68.

As to `O=C(CCCn1ccnc1)N1CCc2[nH]c(-c3ccc(Cl)cc3)nc2C1`, the “% Inhibition” value is on record as -6% and the Z score is recorded as 1.04.

Turning to `C[C@@H](CO)Nc1ccc(-c2cnc(N3CCCC(O)C3)nc2)cn1` (stereo partly specified), the “% Inhibition” value is -7% and the Z score turned out to be 1.31.

For the compound `CN1CCN([C@H](c2ccccc2)c2nc(-c3ccc(Oc4ccc(F)cc4)nc3)no2)CC1`, the “% Inhibition” value is -8% and the Z score came to 1.4.

Turning to `Cc1cccc(CN2CCC[C@@]3(CCN(c4nc(N)nc5[nH]ncc45)C3)C2=O)c1`, the “% Inhibition” value was -4% and the Z score was 0.73.

`Cc1nc(C)c(C)c(N2CC(OCc3ccccc3)C2)n1`: the “% Inhibition” value is listed as -11% and the Z score amounted to 1.9.

Regarding `O=C(NCCc1c[nH]cn1)c1cccc(-c2ccc(CN3CCCC3)cc2)c1`, the “% Inhibition” value is recorded as -8% and the Z score is reported as 1.18.

Turning to `C[C@@H](CCNc1ccc(-c2nc(-c3cccc(F)c3)no2)cn1)N1CCCCCC1`, the “% Inhibition” value is listed as -13% and the Z score is 2.19.

On to `O=C(Nc1cnc(N2CCNCC2)nc1)N1CCN(C2CC3CCC2C3)CC1` (stereo unspecified), for which the “% Inhibition” value is -7% and the Z score was determined as 1.18.

On to `Cc1cc(C(=O)NCC2(C3CC3)CCC2)c(C)s1`, for which the “% Inhibition” value is -10% and the Z score came to 2.

In the case of `C[C@H](O)CN1CCN(CC(=O)NC2CCN(C3CC3)CC2)CC1`, the “% Inhibition” value is -5% and the Z score came to 0.86.

For `CCN(CC)c1nc(/C=C\c2ccccc2Cl)nc2ccc(OC)cc12`, the “% Inhibition” value was -20% and the Z score is given as 2.97.

Consider `C[C@H](Nc1ncnc2c1CCNCC2)c1cnn(-c2ccc(F)cc2)c1`, for which the “% Inhibition” value was -13% and the Z score stood at 2.26.

As for `O=C(NCC1CCN(c2noc(C3CC3)n2)CC1)c1cc(-c2ccccc2)[nH]n1`, the “% Inhibition” value is recorded as -11% and the Z score was found to be 1.87.

For `O=C(Nc1cccc(-c2ccn[nH]2)c1)N1CCC(N2CCOCC2)CC1`, the “% Inhibition” value is recorded as 1% and the Z score was -0.15.

On to `CN1CCC[C@H](NC2CCN(CC3CC3)CC2)C1`, for which the “% Inhibition” value is 4% and the Z score is -0.73.

`Cc1[nH]c2ccccc2c1CN1CCC(Oc2ccccc2C(=O)N2CCCCC2)CC1`: the “% Inhibition” value amounted to 2% and the Z score is -0.42.

As for `CO[C@H]1C[C@@H](CN2CCCC2)N(c2ccnc(N3CCOCC3)n2)C1`, the “% Inhibition” value is -2% and the Z score was 0.35.

For the compound `CN([C@](C)(C#N)C1CC1)S(C)(=O)=O`, the “% Inhibition” value is reported as -7% and the Z score is listed as 1.42.

Take `CCc1cnc(NCC[C@H]2CCCCN2C)nc1`: the “% Inhibition” value was 1% and the Z score is reported as -0.2.

`c1ccc(-c2nccc(N3CCC(Nc4cccnn4)CC3)n2)cc1`: the “% Inhibition” value is -3% and the Z score came out at 0.54.

Turning to `N#Cc1ccc(CN2CCN(c3ncnc4cc[nH]c34)CC2)c(F)c1`, the “% Inhibition” value is -12% and the Z score came to 1.79.

Turning to `O[C@H]1CCCN(c2ccnc(N3CCN(c4nsc5ccccc45)CC3)n2)C1`, the “% Inhibition” value is -6% and the Z score came to 1.05.

In the case of `CCN1CC[C@H](CN2CCOC3(CCN(Cc4c[nH]cn4)CC3)C2)C1`, the “% Inhibition” value is reported as -6% and the Z score stood at 1.12.

In the case of `O=C(c1ccc(-c2ccsc2)cc1)N1CC(Nc2ncccn2)C1`, the “% Inhibition” value is reported as 2% and the Z score was -0.38.

Regarding `CCN(C[C@H]1CCN(c2cc(N3CCCC3)ncn2)C1)CC(F)(F)F`, the “% Inhibition” value is reported as -7% and the Z score is reported as 1.54.

Regarding `c1ccc(CN2CCC[C@H](CNC3CCN(c4ccc5c(c4)OCO5)CC3)C2)cc1`, the “% Inhibition” value is 14% and the Z score is listed as -2.53.

For the compound `N#CC1CCCC(N[C@H]2c3ccccc3C[C@H]2O)C1` (stereo partly specified), the “% Inhibition” value turned out to be 4% and the Z score is -0.8.

On to `O=C1NCCCC[C@@H]1NC1CCN(c2cccc(-c3cscn3)c2)CC1`, for which the “% Inhibition” value is recorded as -10% and the Z score is on record as 1.75.

Take `CC(=O)N1CC(Nc2ccnc3ccncc23)CCC1C(F)(F)F` (stereo unspecified): the “% Inhibition” value was determined as 2% and the Z score is given as -0.34.

Consider `Cc1cc(F)ccc1N1CCC(N2CCC[C@H](N3CCN(c4ccccc4)CC3)C2)CC1`, for which the “% Inhibition” value turned out to be 5% and the Z score is -0.8.

Regarding `C[C@@H](c1cc2ccccc2o1)N(C)CCC(=O)N1CCN(c2ccc(F)cc2)CC1`, the “% Inhibition” value is given as -2% and the Z score came out at 0.48.

As to `FC(F)(F)COc1cccc(CN[C@H]2CCCNCC2)c1`, the “% Inhibition” value came to 26% and the Z score was -3.98.

Take `CN1CCC(CNC(=O)N(C)C2Cc3ccccc3C2)(N(C)C)CC1`: the “% Inhibition” value is -2% and the Z score is recorded as 0.4.

Turning to `CCN(CC1CCN(C2CCN(C)CC2)CC1)C[C@@H](C)CCC=C(C)C`, the “% Inhibition” value stood at 4% and the Z score is on record as -0.65.

In the case of `Clc1ccc(Nc2nc3c(Br)cccc3o2)cc1`, the “% Inhibition” value is -1% and the Z score is given as 0.15.

As to `Fc1cc2ncnc(NCc3ccnc(-n4ccnc4)c3)c2cc1F`, the “% Inhibition” value is -10% and the Z score is given as 1.9.

For `O=C(NCc1cccc2[nH]ccc12)C1CCN(C2CCOCC2)CC1`, the “% Inhibition” value was -5% and the Z score is 1.08.

As for `Cc1ccc2c(c1)c1nnc(-c3ccccc3)c-1cn2Cc1ccccc1F`, the “% Inhibition” value is given as -3% and the Z score was 0.47.

On to `COc1ccc2oc(C)c(C(=O)N[C@@H](C)c3cccnc3)c2c1`, for which the “% Inhibition” value is listed as -2% and the Z score is 0.28.

Regarding `CN1CCN(CCCN(C)c2ncnc3[nH]ccc23)CC1`, the “% Inhibition” value is -16% and the Z score is reported as 2.5.

With `CCN1CCN(c2cccc(NCc3cnc4ccccn34)c2)CC1`, the “% Inhibition” value was 1% and the Z score is -0.2.

`Cc1cc(Nc2nc(C(=O)NCC[C@H](C)N3CCCCCC3)cc3occc23)ccc1Br`: the “% Inhibition” value is listed as -3% and the Z score worked out at 0.57.
